B1: GPR68, Q15743 (parent)
chain: MGNITADNSSMSCTIDHTIHQTLAPVVYVTVLVVGFPANCLSLYFGYLQIKARNELGVYLCNLTVADLFYICSLPFWLQYVLQHDNWSHGDLSCQVCGILLYENIYISVGFLCCISVDRYLAVAHPFRFHQFRTLKAAVGVSVVIWAKELLTSIYFLMHEEVIEDENQHRVCFEHYPIQAWQRAINYYRFLVGFLFPICLLLASYQGILRAVRRSHGTQKSRKDQIQRLVLSTVVIFLACFLPYHVLLLVRSVWEASCDFAKGVFNAYHFSLLLTSFNCVADPVLYCFVSETTHRDLARLRGACLAFLTCSRTGRAREAYPLGAPEASGKSGAQGEEPELLTKLHPAFQTPNSPGSGGFPTGRLA

Variants of B1 are the subject of data set [1]. The data set is described as follows: cAMP reporter score (Enrich2 score, wild type = 0); higher = more signal; HEK293T, FACS bins.
The variants in data set [2] derive from B1. Kind of data set: surface expression score (Enrich2 score, wild type = 0); higher = more signal; HEK293T, FACS bins.

Scores whose standard error is large were omitted. The source holds two more conditions with little spread; they are left out. Names with del lack the residues named; names with ins carry added residues between the positions named. For some of these results: How much ogerin was present is not stated here.

For Y106_I107insGS, the cAMP reporter score in data set [1] (pH 5.5) was -0.407; in data set [1] (pH 6), -0.224. In addition, the surface expression score in data set [2] was -1.09.
Take MGNITADNSSMSCTIDHTIHQTLAPVVYVTVLVVGFPANCLSLYFGYLQIKARNELGVYLCNLTVADLFYICSLPFWLQYVLQHDNWSHGDLSCQVCGILLYENIYFSVGFLCCISVDRYLAVAHPFRFHQFRTLKAAVGVSVVIWAKELLTSIYFLMHEEVIEDENQHRVCFEHYPIQAWQRAINYYRFLVGFLFPICLLLASYQGILRAVRRSHGTQKSRKDQIQRLVLSTVVIFLACFLPYHVLLLVRSVWEASCDFAKGVFNAYHFSLLLTSFNCVADPVLYCFVSETTHRDLARLRGACLAFLTCSRTGRAREAYPLGAPEASGKSGAQGEEPELLTKLHPAFQTPNSPGSGGFPTGRLA [I107F]: the cAMP reporter score in data set [1] (pH 5.5) was -0.77; in data set [1] (pH 6), -1.17; in data set [1] (pH 6.5, modulator: ogerin), -0.398. Also, in data set [2], the surface expression score was -2.43.
Regarding MGNITADNSSMSCTIDHTIHQTLAPVVYVTVLVVGFPANCLSLYFGYLQIKARNELGVYLCNLTVADLFYICSLPFWLQYVLQHDNWSHGDLSCQVCGILLYENIYESVGFLCCISVDRYLAVAHPFRFHQFRTLKAAVGVSVVIWAKELLTSIYFLMHEEVIEDENQHRVCFEHYPIQAWQRAINYYRFLVGFLFPICLLLASYQGILRAVRRSHGTQKSRKDQIQRLVLSTVVIFLACFLPYHVLLLVRSVWEASCDFAKGVFNAYHFSLLLTSFNCVADPVLYCFVSETTHRDLARLRGACLAFLTCSRTGRAREAYPLGAPEASGKSGAQGEEPELLTKLHPAFQTPNSPGSGGFPTGRLA [I107E], the cAMP reporter score in data set [1] (pH 5.5) is -1.72; in data set [1] (pH 6, modulator: ogerin), -0.299; in data set [1] (pH 6.5, modulator: ogerin), -1.93.
Turning to MGNITADNSSMSCTIDHTIHQTLAPVVYVTVLVVGFPANCLSLYFGYLQIKARNELGVYLCNLTVADLFYICSLPFWLQYVLQHDNWSHGDLSCQVCGILLYENIYDSVGFLCCISVDRYLAVAHPFRFHQFRTLKAAVGVSVVIWAKELLTSIYFLMHEEVIEDENQHRVCFEHYPIQAWQRAINYYRFLVGFLFPICLLLASYQGILRAVRRSHGTQKSRKDQIQRLVLSTVVIFLACFLPYHVLLLVRSVWEASCDFAKGVFNAYHFSLLLTSFNCVADPVLYCFVSETTHRDLARLRGACLAFLTCSRTGRAREAYPLGAPEASGKSGAQGEEPELLTKLHPAFQTPNSPGSGGFPTGRLA [I107D], the cAMP reporter score was -1.64 in data set [1] (pH 5.5); -2.97 in data set [1] (pH 6, modulator: ogerin); -0.68 in data set [1] (pH 6.5, modulator: ogerin). For the same variant, in data set [2], the surface expression score was -2.46.
Consider MGNITADNSSMSCTIDHTIHQTLAPVVYVTVLVVGFPANCLSLYFGYLQIKARNELGVYLCNLTVADLFYICSLPFWLQYVLQHDNWSHGDLSCQVCGILLYENIYCSVGFLCCISVDRYLAVAHPFRFHQFRTLKAAVGVSVVIWAKELLTSIYFLMHEEVIEDENQHRVCFEHYPIQAWQRAINYYRFLVGFLFPICLLLASYQGILRAVRRSHGTQKSRKDQIQRLVLSTVVIFLACFLPYHVLLLVRSVWEASCDFAKGVFNAYHFSLLLTSFNCVADPVLYCFVSETTHRDLARLRGACLAFLTCSRTGRAREAYPLGAPEASGKSGAQGEEPELLTKLHPAFQTPNSPGSGGFPTGRLA [I107C], for which the cAMP reporter score is 0.383 in data set [1] (pH 5.5); -1.74 in data set [1] (pH 6); -1.34 in data set [1] (pH 6, modulator: ogerin); -0.232 in data set [1] (pH 6.5, modulator: ogerin). For the same variant, the surface expression score in data set [2] is -2.39.
Turning to N104_I105insGS, the cAMP reporter score in data set [1] (pH 5.5) was -3.13; in data set [1] (pH 6, modulator: ogerin), -2.21; in data set [1] (pH 6.5, modulator: ogerin) it was -0.514. Moreover, the surface expression score in data set [2] is -2.55.
For the variant Y106_S108del, the cAMP reporter score in data set [1] (pH 5.5) is -1.9; in data set [1] (pH 6), -1.01; in data set [1] (pH 6, modulator: ogerin), -1.65; in data set [1] (pH 6.5, modulator: ogerin), -1.43. Also, the surface expression score in data set [2] was -2.08.
